# The sequences are guide strands of siRNAs; only the seed at positions 2 to 7 varies.
# Assays:
# GL261 = assay: cell viability relative to siNT1 (ATP content); H4 human neuroglioma and GL261 mouse glioma; higher = less toxic; conditions: siRNA concentration 25 nM; 96 h; mouse
# H4 = assay: as above; conditions: siRNA concentration 10 nM; 96 h; human
# 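Also: cells reverse transfected with siRNA duplexes via lipid reagent, ATP read by luminescence, triplicate wells, values scaled to mean viability with non-targeting control siNT1.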
Sequence,cell viability (GL261),cell viability (H4)
UUUUUUCACAUGUAAACCA,58.3%,97.3%
UUUUUUGACAUGUAAACCA,69.7%,100%
UUUUUUUACAUGUAAACCA,94.4%,99.4%
